# In the RNAGym collection of RNA variant scans (doi:10.7554/elife.90254):
# Read counts are not given, so values of variants with three or more changes are uncertain.
# B1: OR4K15 (parent)
# chain: GUUAACGGUCAUAGGCCAUGGAAACUAGGAGCACCAUUUCGCUGCCAGUGAAGAAAUGAACAAAGAAAAUCUGGGCCAGGCAGGCAUCAAAAGAAAUAGUCUUGCGCUCAACCAGAAAGUCUGUAAUCAUUUUAAGGGUA
# Variants of: B1
# Experiment: self-cleavage, relative activity (ratio to wild type); higher = more cleavage; in vitro, sequencing; the parent is a self-cleaving ribozyme
row,Variant,self-cleavage
1,U2A A51G U72A U131C A140U,0.24
2,U2C A22G A33G U57C A67G A117G A140U,0.33
3,U2A A117G U132C,1.78
4,U2C A18U A54G A66U A78U U100C,0.69
5,U2C A5G A135G,0.69
6,U2C A13G A33G A95G U100A U103C,0.35
7,U2C A55G A82U,0.22
8,U2C A54U A69U,1.4
9,U2C A54G U72C A78G A118G,0.08
10,U2C A11U A33G A59U A129G,0.49
11,U2C A22G A62U A69G,0.79
12,U2C A91U U108A U127C,0.02
13,U2C A55G A111U,0.14
14,U2A U26C U43C U87C A117G,1.88
15,U2C A60G U131C,0.77
16,U2C A22U A69G U72A U131C,0.04
17,U2A A56G U57C A63G A89G A126G U133G,0.21
18,U2C A51G A52U A66U,0.84
19,U2C A78U A94G U124G,0.08
20,U2C A51U A60G U108C A129G U133C,0
21,U2C A62U A63U A126G,1.48
22,U2C A11U U87C A94G A125G U127C,0.08
23,U2C A11G A36U,1.41
24,U2C A95C A96G U100C U132C,2.99

row,Variant,self-cleavage
1,U2C A23G U39G A96G,0.33
2,U2A U49A A64G A68G A69G,1.11
3,U2A A68C A125G,0.64
4,U2C A30G U43C C105U A117G,0.31
5,U2A U19G A27U A96G,1.25
6,U2C A33U U102G U133C,0.59
7,U2C A91G U97C,1.17
8,U2C A47U A55U A69G U70C A94G U122C,0.07
9,U2C A47G A135G,1.83
10,U2C A23G A68G A98G A135U,0.8
11,U2C A55G A56G A69G U103C,0.87
12,U2C A23G A24G,1.69
13,U2C A18U A51G A78G U108C G115A U130C,0.01
14,U2C A11C U38C A78G A116G,0.21
15,U2C A51U U130C,1.35
16,U2C A68G A78G A98G A110U U120C,0.06
17,U2C A68U A90G A96G,1.58
18,U2C A67G A95G,1.29
19,U2C A18G U70C U131A U132C,0.14
20,U2A U70C A94U U108C A134U,0.02
21,U2C A55G A111G U127C,0.01
22,U2C A4G U12A A82G,1.24
23,U2C A30G A89G A92G,0.6
24,U2C A24G A118G,0.15

row,Variant,self-cleavage
1,U2C A30G A67U,1.65
2,U2C A56C A59G,1.25
3,U2C A56G A59G A66G U70A A125G,0.2
4,U2C A23G A59G,1.05
5,U2A A68U A94G,1.18
6,U2C A22G U70G U108C,0.1
7,U2A A89G A129G,0.58
8,U2A A51U A67G,1.27
9,U2A A52G A89U,1.07
10,U2C A22U A86G A91G U130G,0.06
11,U2A A66U A86G,1.02
12,U2C A89G U133C,1.57
13,U2A A86U U108C,0.01
14,U2A A96C U108C,0.02
15,U2C A30G A59G A89G U108C A135U,0.03
16,U2C A22G U139C,1.29
17,U2C A5G U130C,0.9
18,U2C A64G A114G,0.26
19,U2C A22G G138A,0.65
20,U2C A22G A59U,0.52
21,U2C A5G A24G U43A A140G,0.67
22,U2C A11U A82G,0.48
23,U2C A55G C107G,0.04
24,U2C A36G A55G A56G A90G A96G,1.23

row,Variant,self-cleavage
1,U2C A18U A69U U131C,0.86
2,U2C A33C A86G,0.99
3,U2C A47U A91C,1.31
4,U2C A67G A118G,0.5
5,U2C A52G A91G A129U,1.21
6,U2A U87C A111G,0.06
7,U2A U26C A96G,0.69
8,U2C A13G A23U A63G,1
9,U2C A55G A63U A98G A114U,0
10,U2C A30G U100C,2.13
11,U2C A33U A78U A91G U103C A134G,0.04
12,U2C A59G G93A A96G,1.74
13,U2C A51G A91U,1.51
14,U2C A5G U120C,0.79
15,U2A U43A U103C U122C,0.42
16,U2A G31U A52G A92G,1.45
17,U2C A66G U108G,0.03
18,U2C A68U A96G,1
19,U2C A36G A51G,1.21
20,U2A U9C A18U A94G A114G,0.89
21,U2C A63G A89G U132G,1.39
22,U2C A23U A68G U108A U122G U133G,0.02
23,U2C A82U A91C U108C U120C,0.02
24,U2C A52G A78U A110G A134U,0.02

row,Variant,self-cleavage
1,U2C A4G A78U A89G C105A,0
2,U2C A89G A114U G137U,0.08
3,U2C A24G U38C,1.05
4,U2C A30U A54G,0.08
5,U2C A22G A23G A59G U87C A92G A134C,0.69
6,U2C A89G A111G,0.07
7,U2A U108C A126G,0.02
8,U2C A56G A66G A67G U102C,0.92
9,U2C A86G A90G U120A,0.58
10,U2C A64G A111U,0.38
11,U2C A5G A24C G48A U108C,0.04
12,U2A U124A U131C,0.43
13,U2C A4G U26A A110G,0.06
14,U2C A52G U127C,0.67
15,U2C A23G A52G C105U,0.07
16,U2C A22G A54G A55G,0.91
17,U2C A91G G99A,0.17
18,U2C A11G G44A A96G U100C,1.48
19,U2C A66G U131C,0.61
20,U2C A67U A95G U102A U130C,1.5
21,U2C A55G A91G,0.67
22,U2C A11G U49C,0.68
23,U2C A22G U131C,0.92
24,U2C A66U A67G U102C A126G,1.31

row,Variant,self-cleavage
1,U2A A78U A82G,0.23
2,U2A A52G U57C A60G A89G U103C A116G A117G A140G,0.07
3,U2A A51G A63G U70C A91G C113U A135G,0.16
4,U2C A66G U122G,2.51
5,U2A G7A C10U A56G A125G U132C,0.49
6,U2C A95G A126U U130C,0.59
7,U2A U72C A111G A117G,0.07
8,U2C A24U U49C,1.03
9,U2C A24C A52G A55G U57A A95G,1.02
10,U2C A33G A69G A86G A89C,0.23
11,U2C A13G A95G,0.72
12,U2C A4G A59G A90G,0.47
13,U2A A55G U122C,0.22
14,U2C A59G U72C A111G,0.03
15,U2C A13G A36G A63G,0.61
16,U2A A62G A82U,0.47
17,U2C A11G A33G U39C A60G A62G U72C,0.17
18,U2C A13U A24G A66G C128U,0.83
19,U2A U9C U26C,1.11
20,U2C A56G A91G,0.7
21,U2C A18U A129G,0.67
22,U2A A94G U102A U103C U108C,0.05
23,U2C A91G U103C,0.25
24,U2C A56G A68G A110G,0.11

row,Variant,self-cleavage
1,U2C A90G A116U A126G,0.02
2,U2A A54G A55G A63G A67G A92G U122C,0.74
3,U2C A92G U100C A129U,1.18
4,U2A U3C A89G,1.12
5,U2A U3C A30G C71U U122C,0.33
6,U2A U26C U39C U100C A135G,1.69
7,U2C A11G A66G,0.97
8,U2C A36G A47U A125G U130C,0.16
9,U2C A56G U108A,0.04
10,U2C A11U C16G,0.7
11,U2A A52C U70A A78U,0.39
12,U2C A82U A90G U100C,0.48
13,U2A A91G A96G A135G,0.47
14,U2C A27U U43C A111G,0
15,U2C A18U A22G U124C,0.59
16,U2C A22G C107A,0.06
17,U2C A33U A47G U139C,0.66
18,U2A A60G G74A,0.2
19,U2A A62U A78G A116G U127C,0.05
20,U2C A5G A24G A118G U122C,0.22
21,U2A A55G U87C,0
22,U2A A64G A68G,0.69
23,U2C A24G A30G A55G A67G,0.37
